Measured values from the supplement of paper PMC7726561.
Whole data set: some 1,400 sequences, median “thermal melting temperature (Tm) of peptide-HLA complex” near 60, cut for the lowest 2% near 45. The list shows a part of the results.

biological target: HLA-B*07:02; test: thermal melting temperature (Tm) of peptide-HLA complex; higher = more thermostable pHLA complex; conditions: C1R-B*07:02
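Note: cell lysates heated 10 min at 37–73 °C, remaining pHLA pulled down with pan-class I antibody, peptides quantified by DIA-MS versus 37 °C, Tm where half the complex is lost.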

| Sequence | thermal melting temperature [°C] |
| --- | --- |
| LPQPPRDVL | 58.6 |
| KPFDQTTISL | 61.3 |
| HPNVLPVL | 58.8 |
| SPVKSTTSI | 59.1 |
| APFDREPFTL | 57.5 |
| AALPFVRQAGL | 42.3 |
| RPAYLVTL | 60.1 |
| QPQQPGFFL | 61.1 |
| KPINSVLQL | 61 |
| TPSLVKSTSQL | 61.8 |
| QPRSPGPDYSL | 57.7 |
| GPREAFRQL | 61.5 |
| SPMMPRITSVF | 60.1 |
| LARPVGTSL | 60.8 |
| SPRVQFQSL | 61.7 |
| VPNWHRDL | 55.2 |
| GPRALTEEL | 60.9 |
| SPRSSTVHIL | 56.8 |
| RPYAPINANAI | 59.2 |

| Sequence | thermal melting temperature [°C] |
| --- | --- |
| IPIALSGRDIL | 57.8 |
| HPELTPLL | 59.7 |
| SPGPRPVL | 59.6 |
| YPHQVPLVL | 64.4 |
| SPLVSRLTLY | 41.1 |
| APRPLPQLL | 62.5 |
| RPTDVAISF | 58.3 |
| RPWSNSRGL | 50.6 |
| YPRTLDVVL | 60.1 |
| RPFFPLTATL | 49.6 |
| SPFFRALL | 62.6 |
| IPDVKGAVL | 58.7 |
| IPQPPILQL | 60.1 |
| IPIGGGTSV | 41.6 |
| HPYRAFPVL | 51.6 |
| APRPPQDLIGL | 62.2 |
| RPGPVLPAV | 60.1 |
| FPIEVRHYL | 59.6 |
| APRAPPGPAGL | 58.2 |

| Sequence | thermal melting temperature [°C] |
| --- | --- |
| APALRPLVI | 60.1 |
| RPGLTTVL | 59.3 |
| APFLRNVEL | 64.3 |
| RPSLPLPHF | 62.4 |
| APGPGRKEL | 63.2 |
| YPRGGSSEIAF | 56.1 |
| APRLPITGL | 63.6 |
| RPAANPIQF | 60.6 |
| KPDSDRFVFL | 54.2 |
| RPAEVGGMQL | 59.1 |
| APSPASFQRSL | 59.9 |
| NVKKVSLEL | 44.3 |
| YPKRPLLGL | 61.3 |
| KPSLPFTSL | 62.5 |
| SPRSGYFAL | 61.8 |
| SPDLGKNLQTL | 60.1 |
| TPRVPDNSLL | 55.2 |
| APRGTGIVSA | 57.4 |
